The supplement of paper PMC4723716
± gives the uncertainty stated by the source. Whole data set: some 9,900 compounds, median “viability index relative to DMSO control” near 1, cut for the lowest 2% near 0.85. The list shows a part of the results.

test system: Plasmodium falciparum NF54 stage V gametocytes; assay: viability index relative to DMSO control (fraction); higher = less gametocyte killing; details: 2.5 µM, library set: Broad Institute DOS, incubation time: 72 h
Summary of the method: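 P. falciparum NF54 stage V gametocytes in serum-free screening medium (0.75% gametocytemia, 1.25% hematocrit, 10 µl) were incubated with compound at 2.5 µM in 1,536-well plates for 72 hr at 37°C under low oxygen. Then 3 µl of 2.5 µM MitoTracker Red CMXRos plus 0.13% saponin was added for one to two hours. One field per well was imaged, 20–70 µm2 red particles were counted, and the viability index was the count divided by the plate mean of DMSO wells.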

Q: How did the viability index turn out when `COc1ccccc1CN1C[C@@H]2N[C@H](C1)[C@H]2c1ccc(-c2ccncc2)cc1` was run?
A: The viability index was 1.12 ± 0.11.

Q: For `C[C@H]1CN([C@@H](C)CO)C(=O)c2cc(-c3ccc(F)cc3)cnc2O[C@@H]1CN(C)S(C)(=O)=O`, which viability index is on record?
A: The viability index was 1.05 ± 0.02.

Q: Which viability index does the source give for `O=C(C[C@@H]1C[C@@H]2c3cc(NC(=O)Nc4ccccc4)ccc3O[C@@H]2[C@@H](CO)O1)NCc1ccccc1` here?
A: The viability index was 1.015 ± 0.0017.

Q: How did the viability index turn out when `CO[C@@H]1CN(C)C(=O)c2cc(NC(=O)C3CCCCC3)ccc2OC[C@H](C)N(Cc2cccnc2)C[C@H]1C` was run?
A: Its viability index is 1.12 ± 0.073.

Q: Which viability index does the source give for `CN1C(=O)c2cc(NS(C)(=O)=O)ccc2OC[C@H]2O[C@H](CC(=O)NCc3ccccc3)CC[C@H]21` here?
A: Its viability index is 1.12 ± 0.043.

Q: How did the viability index turn out when `CO[C@H]1CN(C)C(=O)c2ccc(NC(C)=O)cc2OC[C@@H](C)N(Cc2cccc(F)c2)C[C@H]1C` was run?
A: The viability index was 1.11 ± 0.017.

Q: `COc1ccccc1-c1ccc2c(c1)[C@H]1[C@H](CCN1C(=O)CN1CCOCC1)[C@H](CO)N2C` was tested. Which viability index did it give?
A: The viability index was 1.11 ± 0.095.

Q: Which viability index does the source give for `CCCNC(=O)N1CC(=O)N2[C@H](CO)[C@@H](c3ccc(-c4ccc(F)cc4)cc3)[C@H]2C1` here?
A: The viability index was 0.946 ± 0.012.

Q: Which viability index does the source give for `O=C([C@H]1[C@H](CO)[C@H]2Cn3c(ccc(C4=CCCC4)c3=O)[C@@H]1N2C(=O)c1cccnc1)N1CCOCC1` here?
A: Its viability index is 1.07 ± 0.068.

Q: With `CO[C@H]1CN(C)C(=O)c2ccc(NC(=O)Nc3c(C)noc3C)cc2OC[C@H](C)N(CCC(F)(F)F)C[C@H]1C` as the molecule, how does the viability index read?
A: Its viability index is 0.984 ± 0.035.

Q: With `Cc1ccc(S(=O)(=O)N2CC[C@H]3[C@H](CO)Nc4ccc(-c5cccc(C(=O)N(C)C)c5)cc4[C@H]32)cc1` as the molecule, how does the viability index read?
A: Its viability index is 0.7 ± 0.018.

Q: `Cc1ccccc1-c1ccc2c(c1)O[C@@H](CN(C)C(=O)Nc1ccc(C(F)(F)F)cc1)[C@@H](C)CN([C@H](C)CO)S2(=O)=O` was tested. Which viability index did it give?
A: The viability index was 0.97 ± 0.026.

Q: With `CC(C)COC(=O)N(C)C[C@H]1OCc2ccccc2-c2ccccc2C(=O)N([C@@H](C)CO)C[C@H]1C` as the molecule, how does the viability index read?
A: The viability index was 1.03 ± 0.21.

Q: `COc1cccc(CN2[C@@H](CO)[C@H](c3ccccc3)C23CN(C(=O)C2CCCCC2)C3)c1` was tested. Which viability index did it give?
A: The viability index was 1.06 ± 0.057.

Q: With `Cc1noc(C)c1NC(=O)N(C)C[C@H]1OCc2cnnn2CCCC(=O)N([C@@H](C)CO)C[C@@H]1C` as the molecule, how does the viability index read?
A: The viability index was 1.09 ± 0.028.

Q: How did the viability index turn out when `C[C@@H]1CN([C@@H](C)CO)C(=O)CCCn2nncc2CO[C@H]1CN(C)Cc1ccccc1C(=O)O` was run?
A: The viability index was 1.01 ± 0.073.

Q: With `CCS(=O)(=O)N1CC(=O)N2[C@H](CO)[C@@H](c3ccc(C4=CCCCC4)cc3)[C@@H]2C1` as the molecule, how does the viability index read?
A: Its viability index is 1.1 ± 0.046.

Q: Which viability index does the source give for `CO[C@@H]1CN(C)C(=O)c2ccc(NS(C)(=O)=O)cc2OC[C@H](C)N(C(=O)CN(C)C)C[C@@H]1C` here?
A: Its viability index is 0.99 ± 0.025.

Q: `COc1ccc2c3c([C@H](CO)N(C[C@]33CCN(Cc4ccccn4)CC3)C(=O)Nc3ccc(F)cc3)n(C)c2c1` was tested. Which viability index did it give?
A: Its viability index is 1.02 ± 0.018.

Q: How did the viability index turn out when `COc1ccccc1CN1[C@H](CO)[C@H]2c3ccccc3N(C(=O)C3CCOCC3)C[C@H]21` was run?
A: The viability index was 1 ± 0.06.

Q: `CCS(=O)(=O)Nc1ccc2c(c1)C(=O)N(C)[C@@H]1CC[C@H](CC(=O)N[C@H]3CCN(Cc4ccccc4)C3)O[C@H]1CO2` was tested. Which viability index did it give?
A: Its viability index is 1.09 ± 0.15.

Q: For `O=C(c1cnccn1)N1CC(=O)N2[C@H](CO)[C@H](c3ccc(/C=C/c4ccccc4)cc3)[C@@H]2C1`, which viability index is on record?
A: Its viability index is 1.06 ± 0.063.

Q: With `COc1ccc([C@@H]2C/C=C\C[C@@H](c3cccc(Cl)c3)NC(=O)[C@@H](c3ccccc3)CC(=O)N2)c(OC)c1` as the molecule, how does the viability index read?
A: Its viability index is 1.03 ± 0.054.

Q: Which viability index does the source give for `Cc1noc(C)c1S(=O)(=O)N(C)C[C@@H]1OCc2cnnn2CCCC(=O)N([C@@H](C)CO)C[C@H]1C` here?
A: The viability index was 0.975 ± 0.1.

Q: `C[C@H]1C/C=C/C[C@@H](c2ccccc2)NC(=O)[C@H](C)N(C)C(=O)c2ccccc2O1.C[C@H]1C/C=C\C[C@@H](c2ccccc2)NC(=O)[C@H](C)N(C)C(=O)c2ccccc2O1` was tested. Which viability index did it give?
A: The viability index was 1.04 ± 0.0069.

Q: `C[C@H](CO)N1C[C@H](C)[C@@H](CN(C)S(C)(=O)=O)OCCCC[C@H](C)Oc2ccc(NC(=O)NC3CCCCC3)cc2C1=O` was tested. Which viability index did it give?
A: Its viability index is 1.11 ± 0.13.

Q: Which viability index does the source give for `COc1cccc(CN2C[C@]3(CCN(C)CC3)c3c([nH]c4cc(OC)ccc34)[C@H]2CO)c1` here?
A: Its viability index is 0.989 ± 0.14.

Q: For `Cc1ccccc1S(=O)(=O)N1CCCCN2[C@H](CO)[C@H](c3ccc(C#CCN(C)C)cc3)[C@@H]2C1`, which viability index is on record?
A: Its viability index is 1.01 ± 0.14.

Q: Which viability index does the source give for `CC(=O)N1Cc2cc(C(=O)NCC(F)(F)F)nc(-c3cccc(-c4cccnc4)c3)c2[C@@H]1CCO` here?
A: The viability index was 1.02 ± 0.074.

Q: Which viability index does the source give for `O=C(Cc1ccncc1)NCC[C@@H]1CC[C@H](NS(=O)(=O)c2ccccc2Cl)[C@H](CO)O1` here?
A: Its viability index is 1.1 ± 0.1.

Q: With `COc1cccc(S(=O)(=O)Nc2ccc3c(c2)C(=O)N(C)C[C@@H](OC)[C@@H](C)CN(Cc2ccccc2F)[C@H](C)CO3)c1` as the molecule, how does the viability index read?
A: The viability index was 1.016 ± 0.0036.

Q: Which viability index does the source give for `CCS(=O)(=O)N1C[C@@]2(C1)CN([C@H](CO)c1c2c2ccc(OC)cc2n1C)S(=O)(=O)c1ccccc1` here?
A: The viability index was 1.07 ± 0.054.

Q: For `O=C(Nc1cccc(F)c1)N1CCCCN2[C@H](C1)[C@H](c1ccc(C#Cc3cccnc3)cc1)[C@@H]2CO`, which viability index is on record?
A: Its viability index is 0.836 ± 0.036.

Q: `CCN(C[C@@H]1[C@@H](c2ccccc2)[C@@H](CO)N1C(C)=O)C(=O)NC1CCCC1` was tested. Which viability index did it give?
A: Its viability index is 1.008 ± 0.0044.

Q: With `CCS(=O)(=O)N1C[C@@]2(C1)CN([C@@H](CO)c1c2c2ccc(OC)cc2n1C)C(=O)NC(C)C` as the molecule, how does the viability index read?
A: Its viability index is 1.02 ± 0.041.

Q: Which viability index does the source give for `C[C@H](CO)N1C[C@H](C)[C@@H](CN(C)C(=O)CCC(F)(F)F)OCc2cn(nn2)CCCC1=O` here?
A: Its viability index is 1.07 ± 0.014.

Q: `CN(C)C(=O)c1cccc(-c2ccc([C@@H]3[C@@H]4CN(S(=O)(=O)c5cccc(Cl)c5)C[C@H]3N4)cc2)c1` was tested. Which viability index did it give?
A: Its viability index is 1.08 ± 0.093.

Q: For `CO[C@H]1CN(C)C(=O)c2cc(NC(=O)c3cnccn3)ccc2OC[C@@H](C)NC[C@@H]1C`, which viability index is on record?
A: Its viability index is 1.09 ± 0.059.

Q: Which viability index does the source give for `CCC(=O)Nc1ccc2c(c1)C(=O)N(C)C[C@H](OC)[C@H](C)CN(Cc1nccs1)[C@H](C)CO2` here?
A: Its viability index is 1.08 ± 0.086.

Q: With `C[C@@H]1CCCCO[C@@H](CN(C)S(=O)(=O)c2cn(C)cn2)[C@@H](C)CN([C@@H](C)CO)C(=O)c2cc(NC(=O)Nc3cccc4ccccc34)ccc2O1` as the molecule, how does the viability index read?
A: Its viability index is 1.04 ± 0.069.

Q: How did the viability index turn out when `CCCNC(=O)N1[C@H](CO)[C@@H](c2ccccc2C2=CCCCC2)[C@@H]1C#N` was run?
A: Its viability index is 1.08 ± 0.094.

Q: For `O=C(C1CCOCC1)N1CC(=O)N2[C@H](C1)[C@H](c1ccc(/C=C/c3ccccc3)cc1)[C@@H]2CO`, which viability index is on record?
A: Its viability index is 1.08 ± 0.043.

Q: `O=C(C[C@H]1CC[C@H]2[C@@H](COC[C@H](O)CN2C(=O)Nc2ccc(F)cc2)O1)NC1CCC1` was tested. Which viability index did it give?
A: Its viability index is 1.07 ± 0.088.

Q: With `O=C(O)C[C@H]1C=C[C@@H](NC(=O)Nc2cc(F)ccc2F)[C@@H](CO)O1` as the molecule, how does the viability index read?
A: Its viability index is 0.919 ± 0.095.
